# Experimental data as given in publication PMC4336329 (PLoS ONE, 2015).
# The whole screen tested about 310,000 compounds, of which about 14,000 (4.5%) showed an effect of 50% or more. The effect is printed as a negative number. The list shows a part of the results.
# Biological target: human ether-à-go-go-related gene (hERG) potassium channel (human, UniProt Q12809)
# Experiment: primary screen, population patch clamp on CHO cells stably expressing hERG
# 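Note: peak tail current of the secondary pulse compared with the same well before compound.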
# Sequence of human ether-à-go-go-related gene (hERG) potassium channel (Q12809 whole entry, looked up): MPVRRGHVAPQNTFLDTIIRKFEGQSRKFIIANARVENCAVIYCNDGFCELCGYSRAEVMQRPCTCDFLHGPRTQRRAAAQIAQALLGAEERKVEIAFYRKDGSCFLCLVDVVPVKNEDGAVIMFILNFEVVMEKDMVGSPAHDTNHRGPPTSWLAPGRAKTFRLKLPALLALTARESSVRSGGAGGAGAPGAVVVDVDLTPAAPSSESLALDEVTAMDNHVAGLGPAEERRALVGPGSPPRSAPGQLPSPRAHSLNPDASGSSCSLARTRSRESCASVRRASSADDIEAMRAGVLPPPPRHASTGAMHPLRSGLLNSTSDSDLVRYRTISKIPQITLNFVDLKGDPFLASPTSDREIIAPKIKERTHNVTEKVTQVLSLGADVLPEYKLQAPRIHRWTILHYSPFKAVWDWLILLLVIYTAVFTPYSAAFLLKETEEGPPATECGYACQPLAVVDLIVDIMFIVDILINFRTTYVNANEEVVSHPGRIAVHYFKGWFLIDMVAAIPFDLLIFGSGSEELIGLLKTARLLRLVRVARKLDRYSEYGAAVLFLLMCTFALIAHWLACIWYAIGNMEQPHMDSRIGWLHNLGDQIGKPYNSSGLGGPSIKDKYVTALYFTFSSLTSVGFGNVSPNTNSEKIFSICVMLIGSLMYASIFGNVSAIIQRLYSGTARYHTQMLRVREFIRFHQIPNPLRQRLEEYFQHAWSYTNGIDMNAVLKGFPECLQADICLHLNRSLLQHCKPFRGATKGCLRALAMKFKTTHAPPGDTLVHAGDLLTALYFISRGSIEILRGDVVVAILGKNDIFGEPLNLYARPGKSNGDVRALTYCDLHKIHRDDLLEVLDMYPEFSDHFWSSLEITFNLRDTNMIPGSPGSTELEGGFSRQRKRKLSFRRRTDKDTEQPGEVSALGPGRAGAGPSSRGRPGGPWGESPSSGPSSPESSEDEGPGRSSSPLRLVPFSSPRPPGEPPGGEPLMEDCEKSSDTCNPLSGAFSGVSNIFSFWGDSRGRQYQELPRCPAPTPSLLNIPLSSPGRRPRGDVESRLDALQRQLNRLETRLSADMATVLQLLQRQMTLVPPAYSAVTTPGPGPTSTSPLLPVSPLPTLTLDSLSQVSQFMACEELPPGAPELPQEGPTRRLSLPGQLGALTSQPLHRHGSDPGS
row,SMILES,"hERG current change (%, negative = inhibition) at 10uM [%]"
1,O=C1CN(C(=O)COc2ccc(Br)cc2)c2ccccc2N1,-20.6
2,COc1ccc(-n2nc(C(=O)NCC(=O)NCC3COc4ccccc4O3)c3ccccc3c2=O)cc1OC (stereo not shown),-6.28
3,O=C(Cc1ccccc1)c1c[nH]c(C(=O)C(Cl)(Cl)Cl)c1,18.3
4,CCCCn1c(SCC(=O)Nc2nnc(CC)s2)nc2c1c(=O)n(C)c(=O)n2C,-3.24
5,CCOc1ccc(CCNC(=O)Cn2ncn3nc(-c4ccc(OC)cc4)cc3c2=O)cc1OCC,21.1
6,CCCn1c2ccccc2c2nnc(SC(CC)C(=O)Nc3sc4c(c3C#N)CCCC4)nc21 (stereo not shown),25.3
7,CCOc1ccc(Cn2ccnc2CCl)cc1[N+](=O)[O-],-33.2
8,COc1ccc(C(=O)NC2CCN(CC(=O)NCc3cccc(OC)c3)CC2)cc1,-19.9
9,CCN(CC(=O)Nc1ccc(NC(C)=O)cc1)C(=O)CSc1ncnc2sc(C)c(C)c12,8.99
10,O=C(N/N=C/c1ccccc1)c1ccc(N2CCOCC2)c([N+](=O)[O-])c1,-28.6
11,COc1ccccc1NC(=O)COC(=O)c1cc([N+](=O)[O-])ccc1N1CCCC1,-0.76
12,CSc1ccccc1C(=O)Nc1nc2ccccc2c(=O)[nH]1,5.96
13,COc1ccc(Cn2nnnc2C(c2ccc(C)cc2)N2CCN(C3CCCC3)CC2)cc1.Cl (stereo not shown),-63.8
14,COc1cccc(NC(=O)CSc2nccn(-c3ccc4c(c3)OCCO4)c2=O)c1,-13.7
15,Cc1csc(NS(=O)(=O)c2ccc(Cl)cc2)n1,-6.37
16,COc1ccc(-c2nn(-c3ccccc3)cc2CNC(C)Cn2cncn2)c(F)c1 (stereo not shown),-13
17,O=C(Nc1cccc(C(=O)N2CCCCC2)c1)c1ccc(Cl)cc1,19.8
18,CCN1C(=O)C2C(c3ccccc3F)NC(Cc3ccc(O)cc3)(C(=O)OC)C2C1=O (stereo not shown),3.06
19,COc1ccc(Oc2ccccc2/C=N/O)cc1,4.99
20,Cc1c(CCC(=O)O)c(=O)oc2cc(OCc3ccccc3F)ccc12,27.4
21,COc1ccc(C(=NN)c2ccc(OC)cc2)cc1,10.5
22,CC(C)OCCCN1C(=O)c2[nH]nc(-c3ccccc3O)c2C1c1cccc(Cl)c1 (stereo not shown),-25.7

row,SMILES,"hERG current change (%, negative = inhibition) at 10uM [%]"
1,Cc1noc(C)c1COc1ccccc1C(=O)NCc1ccco1,-5.55
2,O=C(C1CCN(S(=O)(=O)c2cccc3cccnc23)CC1)N1CCn2c1nc1ccccc12,-9.66
3,CCN(CC)c1ncccc1C(=O)NCc1cccs1,0.576
4,CCn1c(SCC(=O)NC(=O)NCc2ccco2)nc2sc(C)c(C)c2c1=O,12.5
5,N#Cc1nc(COc2ccccc2)oc1NCCCn1ccnc1,-50
6,O=C(NCc1cccc(Cl)c1)c1ccc2c(c1)SC1=NS(=O)(=O)CCN12,-5.52
7,COC(=O)C1=Nc2ccccc2/C1=C\c1c(O)n(-c2ccc(Br)cc2)c(=O)[nH]c1=O,18.4
8,CCOC(=O)C[C@H]1c2ccc(C(F)(F)F)cc2S(=O)(=O)N1C(C)(C)C,4.31
9,COc1cc(C2C(=O)N(C3CCCC3)CC(=O)N2Cc2ccco2)ccc1OC(C)C (stereo not shown),-27.6
10,CC(C)c1nccn1S(=O)(=O)c1cccc([N+](=O)[O-])c1,0.907
11,COc1ccc(CC(=O)Nc2cccc(C(=O)Nc3ccccc3C(=O)O)c2)cc1OC,1.48
12,Cc1ccc(C(C)(C)C)cc1S(=O)(=O)Nc1ncnc2sccc12,12.2
13,COC(=O)C(NC(=O)CSc1nc(N)cc(=O)[nH]1)c1ccccc1 (stereo not shown),18.3
14,CCCS(=O)(=O)N1CCCC(C(=O)NCCN(CC)CC)C1 (stereo not shown),22.7
15,O=C(COC(=O)CCCN1C(=O)c2cccc3cccc(c23)C1=O)Nc1cccc(C(F)(F)F)c1,3.65
16,O=C(O)COc1c(Cl)cc(/C=C2\NC(=O)NC2=O)cc1Br,24.1
17,OCc1nc2ccccc2n1CCCOc1ccc(Br)cc1,-36.8
18,COc1ccc(CNC(=O)C2CCN(S(=O)(=O)c3ccc4c(c3)NC(=O)C(C)S4)CC2)cc1 (stereo not shown),-9.31
19,Cc1ccc(Nc2c(-c3ccccc3)nc3cnccn23)cc1,-1.06
20,COc1ccc(CNC(=O)Cc2cccs2)cc1,15
21,COc1ccc(CCNC(=O)c2cc3c(cc2Cl)N2CCCCCC2=NS3(=O)=O)cc1,-31.5
